Assay [1] concerns the target HA-tagged Nipah virus (NiV) phosphoprotein (P) (Nipah virus) (UniProt Q9IK91). Nature of the assay: co-IP.
Assay [2] has as its target HA-tagged NiV P N-terminal residues 1 to 407 (PNT) (Nipah virus) (UniProt Q9IK91). The experiment in a line: co-IP.

No constants are given. Whether binding was seen depends on the method and setting. In cells and extracts the contact can be indirect. Some binding calls cover weakened binding; strength is not graded here. Tags and fused reporters may be left off the sequences shown.

Consider “FLAG-tagged STAT5a (from UniProt P42229-1 1-794)”, for which the binding result in assay [1] and in assay [2] was “no binding” in each case.
In the case of “FLAG-tagged STAT2 (from UniProt P52630 1-851)”, the binding entry in assay [1] and in assay [2] was “binds” in each case.
Turning to “FLAG-tagged STAT3 (from UniProt P40763-1 1-770)”, the binding entry in assay [1] and in assay [2] was “no binding” each time.
With “FLAG-tagged STAT5b (from UniProt P51692 1-787)”, the binding result in assay [1] and in assay [2] was “no binding” each time.

B1: FLAG-tagged STAT4 (protein, UniProt Q14765 1-748)
chain: MSQWNQVQQLEIKFLEQVDQFYDDNFPMEIRHLLAQWIENQDWEAASNNETMATILLQNLLIQLDEQLGRVSKEKNLLLIHNLKRIRKVLQGKFHGNPMHVAVVISNCLREERRILAAANMPVQGPLEKSLQSSSVSERQRNVEHKVAAIKNSVQMTEQDTKYLEDLQDEFDYRYKTIQTMDQSDKNSAMVNQEVLTLQEMLNSLDFKRKEALSKMTQIIHETDLLMNTMLIEELQDWKRRQQIACIGGPLHNGLDQLQNCFTLLAESLFQLRRQLEKLEEQSTKMTYEGDPIPMQRTHMLERVTFLIYNLFKNSFVVERQPCMPTHPQRPLVLKTLIQFTVKLRLLIKLPELNYQVKVKASIDKNVSTLSNRRFVLCGTNVKAMSIEESSNGSLSVEFRHLQPKEMKSSAGGKGNEGCHMVTEELHSITFETQICLYGLTIDLETSSLPVVMISNVSQLPNAWASIIWYNVSTNDSQNLVFFNNPPPATLSQLLEVMSWQFSSYVGRGLNSDQLHMLAEKLTVQSSYSDGHLTWAKFCKEHLPGKSFTFWTWLEAILDLIKKHILPLWIDGYVMGFVSKEKERLLLKDKMPGTFLLRFSESHLGGITFTWVDHSESGEVRFHSVEPYNKGRLSALPFADILRDYKVIMAENIPENPLKYLYPDIPKDKAFGKHYSSQPCEVSRPTERGDKGYVPSVFIPISTIRSDSTEPHSPSDLLPMSPSVYAVLRENLSPTTIETAMKSPYSAE
For the molecule B1, the binding result in assay [1] and in assay [2] was “binds” each time.

These data come from article PMC7771230.
